In all, about 360,000 compounds went through this assay and about 11,000 (3.1%) were called active. Inconclusive results, whose numbers are uncertain, are shown with a selection of clear calls. The call rests on the fitted dose curve; in most records, active means well fitted inhibition curve with a large enough effect; inconclusive means small, poorly fitted or top-dose-only effect; inactive means no such curve, though single readings can be large or run the other way. Potencies of inconclusive entries are left out as doubtful fits.
Target: Schistosoma mansoni thioredoxin glutathione reductase (TGR) (UniProt Q962Y6)
Assay: qHTS Assay for the Inhibitors of Schistosoma Mansoni Peroxiredoxins; further: nearly all actives have a fitted effect of over 60% in size
Conditions: purified TGR, DTNB reduction, TNB absorbance 405 nm; series mostly up to 114 µM
Method in brief: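 First, TGR (20 nM dispensed) and NADPH were mixed with compound. Second, a 15 min room-temperature incubation followed. Third, further NADPH and then DTNB were added to start the reaction. Finally, TNB absorbance was monitored kinetically.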
Potency means the concentration at half of the fitted maximal effect; tags describe the fitted curve by direction and shape.

| Structure (SMILES) | Potency |
| --- | --- |
| COc1ccc(N(CC(=O)NCc2ccco2)S(C)(=O)=O)cc1 | inconclusive [inhibitor, partial curve] |
| COc1ccc(NC(=S)Nc2cccc(C(C)=O)c2)cc1OC | inconclusive [inhibitor, partial curve] |
| O=C1NC(=O)N(c2ccccc2)C(=O)/C1=C\c1ccc([N+](=O)[O-])s1 | active: 10 µM |
| Cc1ccc(NC(=O)c2cc(S(=O)(=O)N(C)C)ccc2N2CCCC2)cc1F | inactive |
| Cc1cc(CNCc2c(C(=O)N(C)Cc3ccccc3)nc3ccccn23)nn1C | inconclusive [inhibitor, full curve, poor fit] |
| C/C(=N\NC(=O)C(O)c1ccccc1)c1ccc(Br)s1 (stereo not given) | inactive |
| COc1ccc(-c2nc(CS(=O)(=O)CC(=O)NCCCc3ccccc3)c(C)o2)cc1 | inconclusive [inhibitor, partial curve] |
| CCSc1ncc(Cl)c(C(=O)N(Cc2ccccc2)Cc2ccco2)n1 | inconclusive [inhibitor, partial curve] |
| O=C(CC1C(=O)NCCN1Cc1ccccc1C(F)(F)F)NC1CCC1 (stereo not given) | active: 39.8 µM |
| CSc1ccccc1C(=O)NC(C)c1ccc(-n2ccnc2)cc1 (stereo not given) | active: 5.62 µM |
| O=C(NCc1ccco1)C(Cc1ccccc1)NS(=O)(=O)c1cccc2nsnc12 (stereo not given) | inconclusive [inhibitor, single point] |
| CC1(C(=O)NCC2CC2)C=CC2(CCCCC2)N1C(=O)c1ccccc1 (stereo not given) | inactive |
| Cc1ccc(C2C=C(c3ccc(F)cc3)Nc3nc(CCCO)nn32)cc1 (stereo not given) | inconclusive [inhibitor, partial curve] |
| CCN(CC)S(=O)(=O)c1ccc(Cl)c(C(=O)NCc2ccco2)c1 | inconclusive [inhibitor, full curve, poor fit] |
| O=C1CCCCN1CCCC(=O)N1CCCC(Nc2ccc(F)cc2)C1 (stereo not given) | inconclusive [inhibitor, partial curve, poor fit] |
| O=C(COC(=O)/C=C/c1ccco1)NCc1ccco1 | inconclusive [inhibitor, full curve] |
| CC(=O)c1cccc(NC(=O)CCS(=O)(=O)c2cccc3nsnc23)c1 | inconclusive [inhibitor, partial curve] |
| O=C(CN1CCN(Cc2ccccc2)CC1)N/N=C\C=C/c1ccco1 | inconclusive [inhibitor, partial curve] |
| COc1ccccc1CN1C(=O)[C@@H]2C(CCC(N)=O)NC3(C(=O)Nc4c3ccc(Cl)c4C)[C@@H]2C1=O (stereo not given in full) | inconclusive [inhibitor, full curve] |
| Cc1nc(C)c(CC(=O)N2CCc3c([nH]c4ccccc34)C2c2ccccn2)s1 (stereo not given) | inconclusive [inhibitor, partial curve] |
| CC(=O)c1cccc(S(=O)(=O)N2CCn3cccc3C2C)c1 (stereo not given) | active: 31.6 µM |
| O=c1[nH]c(=O)n(-c2ccc(F)cc2)c(O)c1/C=C1\C=Nc2ccccc21 | inconclusive [inhibitor, partial curve] |
| CCCC1=C(C(=O)OCC)C(c2cccs2)C(C#N)=C(N)O1 (stereo not given) | inconclusive [inhibitor, single point] |

| Structure (SMILES) | Potency |
| --- | --- |
| Cc1c(O)ccc(/C=N/Nc2nc(-c3cccnc3)nc3ccccc23)c1O | inactive |
| Cc1c(C(=O)NC2CCC(C)CC2)oc2ccccc12 (stereo not given) | inconclusive [inhibitor, partial curve, poor fit] |
| O=C(CSc1nc2cccnc2n1Cc1ccccc1)N1CCCC1 | inactive |
| O=C(O)CCNC(=O)/C(=C\c1ccco1)NC(=O)c1ccco1 | inconclusive [inhibitor, partial curve] |
| CCOC(=O)c1c(NC(=O)C(C)Sc2cn(CCNC(=O)c3ccccc3OC)c3ccccc23)sc2c1CCC2 (stereo not given) | inactive |
| O=C(Nc1cc(Cl)ccc1-n1cncn1)c1ccc([N+](=O)[O-])o1 | inconclusive [inhibitor, partial curve] |
| CC1(C)Oc2ccc3ccc(=O)oc3c2[C@@H](O)[C@H]1O | inactive |
| Cc1cccc(N2C(=O)CC(N3CCOCC3)C2=O)c1 (stereo not given) | active: 50.1 µM |
| COc1ccc(OCC(=O)N/N=C(\C)c2cc3ccccc3o2)cc1 | inactive |
| O=C(Cn1cnnn1)NC1CCCN(Cc2ccccc2F)C1 (stereo not given) | inactive |
| Cc1ccc(C(=O)O)cc1NC(=S)NC(=O)c1ccc(-c2ccccc2)cc1 | inconclusive [inhibitor, partial curve] |
| CCN(CC)CCNC(=O)C(=O)Nc1cc2c3c(c1)CCC(=O)N3CCC2 | inconclusive [inhibitor, single point] |
| Oc1c(C(Nc2nc3ccccc3s2)c2ccco2)ccc2cccnc12 (stereo not given) | inconclusive [inhibitor, partial curve] |
| CNCCc1ccc(OC)c(OC)c1 | inconclusive [inhibitor, single point] |
| Cc1noc(/C=C/N(C)C)c1S(=O)(=O)N1CCCC(C(=O)NCCC2=CCCCC2)C1 (stereo not given) | inactive |
| Cc1[nH]c2ccccc2c1CN1CCN(c2ccccn2)CC1 | inconclusive [inhibitor, partial curve] |
| CCN(CC(=O)Nc1cccc(C(C)=O)c1)S(=O)(=O)c1ccc(OC)cc1 | inconclusive [inhibitor, partial curve] |
| Cc1ccc(N2CCC(N3CCN(C4CCCCC4)C(CCO)C3)CC2)cc1 (stereo not given) | inconclusive [inhibitor, partial curve] |
| Cc1cccc(CS(=O)(=O)Cc2ccc(C(=O)NCC3CCCO3)o2)c1 (stereo not given) | inconclusive [inhibitor, partial curve] |
| COc1ccc(C(=O)OCC[N+]2(C)CCOCC2)cc1 | inconclusive [inhibitor, single point] |
| Cn1c(NN)nc2ccccc2c1=O | inactive |
| CCCN1CCN(CCCNC(=O)c2cc3c(=O)n(CC)c4ccccc4c3s2)CC1 | inactive |
